Measurements as given in the antibiotic and cytotoxicity screens of Wong et al. (2023).
The list shows a part of the results.

test system: HepG2; experiment: cytotoxicity call (relative viability < 0.9); settings: 10 µM

| Structure (SMILES) | cytotoxicity call |
| --- | --- |
| COc1ccc(NC(=O)N(C)C[C@@H]2Oc3ccc(NS(C)(=O)=O)cc3C(=O)N([C@@H](C)CO)C[C@H]2C)cc1 | inactive |
| O=C(CCNCCO)c1ccccc1 | inactive |
| NC(=O)c1cccc(S(N)(=O)=O)c1 | inactive |
| O=C(C[C@H]1CC[C@@H]2[C@H](COC[C@H](O)CN2S(=O)(=O)c2cccc(Cl)c2)O1)N1CCOCC1 | inactive |
| O=C(Nc1ccc(-c2nc3ccc(NC(=O)c4ccccc4[N+](=O)[O-])cc3[nH]2)cc1)c1ccccc1[N+](=O)[O-] | active |
| Cl.NC12CC3CC(CC(C3)C1)C2 | inactive |
| CCS(=O)(=O)Nc1ccc2c(c1)C(=O)N(C)[C@@H]1CC[C@H](CC(=O)NCCCN3CCOCC3)O[C@H]1CO2 | inactive |
| C[C@H](CO)N1C[C@H](C)[C@H](CN(C)S(=O)(=O)c2ccc(Cl)cc2)Oc2ccc(NC(=O)Nc3cccc4ccccc34)cc2CC1=O | active |
| CCCC1CC(C(=O)NC(C(C)Cl)C2OC(SC)C(O)C(O)C2O)N(C)C1.Cl (stereo unspecified) | inactive |
| OC[C@@H](O)[C@H]1O[C@H](c2ccccc2)OC[C@@H]1O | inactive |
| C[C@H](CO)N1C[C@H](C)[C@H](CN(C)C(=O)Nc2ccc3c(c2)OCO3)OCCCC[C@H](C)Oc2ccc(NC(=O)Nc3ccc(F)cc3)cc2C1=O | inactive |
| C[C@@H]1CN([C@H](C)CO)C(=O)c2ccccc2-c2ccccc2CO[C@H]1CN(C)C(=O)c1cc(Cl)cc(Cl)c1 | inactive |
| COc1cc(OC)cc(C(=O)OCCN2CCN(CCOC(=O)c3cc(OC)cc(OC)c3)CC2)c1 | inactive |
| C[C@@H]1CN([C@H](C)CO)C(=O)CCCn2cc(nn2)CO[C@H]1CN(C)C(=O)CCCN(C)C | inactive |
| Cc1ccc(S(=O)(=O)Nc2ccc3c(c2)C(=O)N(C)[C@@H]2CC[C@@H](CC(=O)NCCc4ccncc4)O[C@H]2CO3)cc1 | inactive |
| Cc1ccc(S(=O)(=O)Nc2ccc3c(c2)CC(=O)N([C@H](C)CO)C[C@H](C)[C@H](CN(C)S(=O)(=O)c2c(C)noc2C)O3)cc1 | inactive |

| Structure (SMILES) | cytotoxicity call |
| --- | --- |
| COc1ccc(S(=O)(=O)N(C)C[C@H]2OCCCC[C@H](C)Oc3ccc(NC(=O)Nc4c(C)noc4C)cc3C(=O)N([C@@H](C)CO)C[C@H]2C)cc1 | active |
| CCOC(=O)/C(C)=N/NC(C)=O | inactive |
| C[C@@H]1CN([C@@H](C)CO)C(=O)c2cccc(NC(=O)C3CCOCC3)c2O[C@H]1CN(C)Cc1ccc(-c2ccccc2)cc1 | inactive |
| C[C@@H]1CN([C@@H](C)CO)C(=O)c2cc(C#CC3(O)CCCC3)cnc2O[C@@H]1CN(C)S(=O)(=O)c1ccccc1 | inactive |
| CC(C)CSc1ncnc2scc(-c3ccccc3)c12 | inactive |
| Cc1ccc(S(=O)(=O)Nc2ccc3c(c2)C(=O)N([C@H](C)CO)C[C@H](C)[C@@H](CN(C)Cc2ccncc2)OCCCC[C@@H](C)O3)cc1 | inactive |
| COc1ccc(S(=O)(=O)N(C)C[C@H]2Oc3ccc(NC(=O)CCC(F)(F)F)cc3CC(=O)N([C@@H](C)CO)C[C@@H]2C)cc1 | inactive |
| O=C(CN1CCOCC1)N[C@H]1CC[C@@H](CCNC(=O)C2CCC2)O[C@@H]1CO | inactive |
| C[C@@H]1CN([C@H](C)CO)C(=O)c2cc(NC(=O)Cc3ccccc3)ccc2O[C@H]1CN(C)S(=O)(=O)c1cccs1 | inactive |
| C[C@H](O)C#Cc1ccc2c(c1)O[C@H](CN(C)C(=O)c1ccncc1)[C@H](C)CN([C@H](C)CO)S2(=O)=O | inactive |
| CN(C)CC#Cc1ccc([C@@H]2[C@@H](CO)N3CCCCN(C(=O)CN(C)C)C[C@@H]23)cc1 | inactive |
| CCCCc1nn(-c2ccccc2C(F)(F)F)c(=O)n1Cc1ccc(-c2ccccc2S(=O)(=O)NC(=O)c2sccc2C)cc1 | inactive |
| C[C@H]1CN([C@@H](C)CO)C(=O)c2cccc(NS(=O)(=O)c3ccccc3)c2O[C@H]1CN(C)S(=O)(=O)c1cccs1 | inactive |
| C[C@H](CO)N1C[C@H](C)[C@@H](CN(C)S(=O)(=O)c2ccc(Cl)cc2)Oc2ccc(NS(C)(=O)=O)cc2CC1=O | inactive |
| C[C@H](CO)N1C[C@H](C)[C@H](CN(C)S(=O)(=O)c2ccc(F)cc2)OCCCC[C@H](C)Oc2ccc(NC(=O)CCCCCC(=O)Nc3ccccc3N)cc2C1=O | inactive |

test system: S. aureus RN4220; experiment: growth inhibition call (relative growth <= 0.2); settings: 50 µM

| Structure (SMILES) | growth inhibition call |
| --- | --- |
| COc1ccc(S(=O)(=O)Nc2ccc3c(c2)CC(=O)N([C@@H](C)CO)C[C@@H](C)[C@@H](CN(C)S(=O)(=O)c2ccc(OC)cc2)O3)cc1 | inactive |
| CC(=O)OC[C@@H](OC(C)=O)[C@H](OC(C)=O)[C@H](OC(C)=O)[C@H](OC(C)=O)[C@@H](COC(C)=O)OC(C)=O | inactive |
| Cc1noc(C)c1NC(=O)Nc1ccc2c(c1)C(=O)N([C@@H](C)CO)C[C@H](C)[C@H](CN(C)Cc1ccc(-c3ccccc3)cc1)O2 | inactive |
| CC(C)(C)OC(=O)NCCOCCOCCOc1ccc(N(C(=O)CCl)[C@@H](C(=O)NCCc2ccccc2)c2cccs2)cc1Cl | inactive |
| C[C@@H]1CCCCO[C@@H](CN(C)C(=O)C2CCCCC2)[C@@H](C)CN([C@@H](C)CO)C(=O)c2cc(NC(=O)Nc3ccc(C(F)(F)F)cc3)ccc2O1 | inactive |
| C[C@H](CO)N1C[C@H](C)[C@@H](CN(C)Cc2ccc(Cl)c(Cl)c2)OCCCC[C@H](C)Oc2ccc(NC(=O)C3CCCCC3)cc2C1=O | inactive |
| COCC(=O)N1C[C@@H](C)[C@@H](OC)CN(C)C(=O)c2cc(NC(=O)Nc3ccccc3)ccc2OC[C@@H]1C | inactive |
| C[C@@H]1CCCCO[C@@H](CN(C)C(=O)CCCN(C)C)[C@@H](C)CN([C@H](C)CO)C(=O)c2cc(NC(=O)Nc3ccc(C(F)(F)F)cc3)ccc2O1 | inactive |
| C[C@@H]1CCCCO[C@H](CN(C)C(=O)NC2CCCCC2)[C@@H](C)CN([C@H](C)CO)C(=O)c2cc(NC(=O)Nc3ccc(C(F)(F)F)cc3)ccc2O1 | inactive |
| COc1ccc(NC(=O)N(C)C[C@@H]2Oc3ccc(NS(C)(=O)=O)cc3C(=O)N([C@@H](C)CO)C[C@H]2C)cc1 | inactive |
| O=C(CCNCCO)c1ccccc1 | inactive |
| NC(=O)c1cccc(S(N)(=O)=O)c1 | inactive |
| O=C(C[C@H]1CC[C@@H]2[C@H](COC[C@H](O)CN2S(=O)(=O)c2cccc(Cl)c2)O1)N1CCOCC1 | inactive |
| O=C(Nc1ccc(-c2nc3ccc(NC(=O)c4ccccc4[N+](=O)[O-])cc3[nH]2)cc1)c1ccccc1[N+](=O)[O-] | inactive |
| Cl.NC12CC3CC(CC(C3)C1)C2 | inactive |
| CCS(=O)(=O)Nc1ccc2c(c1)C(=O)N(C)[C@@H]1CC[C@H](CC(=O)NCCCN3CCOCC3)O[C@H]1CO2 | inactive |
| C[C@H](CO)N1C[C@H](C)[C@H](CN(C)S(=O)(=O)c2ccc(Cl)cc2)Oc2ccc(NC(=O)Nc3cccc4ccccc34)cc2CC1=O | inactive |
| CCCC1CC(C(=O)NC(C(C)Cl)C2OC(SC)C(O)C(O)C2O)N(C)C1.Cl (stereo unspecified) | active |
| OC[C@@H](O)[C@H]1O[C@H](c2ccccc2)OC[C@@H]1O | inactive |
| C[C@H](CO)N1C[C@H](C)[C@H](CN(C)C(=O)Nc2ccc3c(c2)OCO3)OCCCC[C@H](C)Oc2ccc(NC(=O)Nc3ccc(F)cc3)cc2C1=O | inactive |

| Structure (SMILES) | growth inhibition call |
| --- | --- |
| C[C@@H]1CN([C@H](C)CO)C(=O)c2ccccc2-c2ccccc2CO[C@H]1CN(C)C(=O)c1cc(Cl)cc(Cl)c1 | inactive |
| COc1cc(OC)cc(C(=O)OCCN2CCN(CCOC(=O)c3cc(OC)cc(OC)c3)CC2)c1 | inactive |
| C[C@@H]1CN([C@H](C)CO)C(=O)CCCn2cc(nn2)CO[C@H]1CN(C)C(=O)CCCN(C)C | inactive |
| Cc1ccc(S(=O)(=O)Nc2ccc3c(c2)C(=O)N(C)[C@@H]2CC[C@@H](CC(=O)NCCc4ccncc4)O[C@H]2CO3)cc1 | inactive |
| Cc1ccc(S(=O)(=O)Nc2ccc3c(c2)CC(=O)N([C@H](C)CO)C[C@H](C)[C@H](CN(C)S(=O)(=O)c2c(C)noc2C)O3)cc1 | inactive |
| COc1ccc(S(=O)(=O)N(C)C[C@H]2OCCCC[C@H](C)Oc3ccc(NC(=O)Nc4c(C)noc4C)cc3C(=O)N([C@@H](C)CO)C[C@H]2C)cc1 | inactive |
| CCOC(=O)/C(C)=N/NC(C)=O | inactive |
| C[C@@H]1CN([C@@H](C)CO)C(=O)c2cccc(NC(=O)C3CCOCC3)c2O[C@H]1CN(C)Cc1ccc(-c2ccccc2)cc1 | inactive |
| C[C@@H]1CN([C@@H](C)CO)C(=O)c2cc(C#CC3(O)CCCC3)cnc2O[C@@H]1CN(C)S(=O)(=O)c1ccccc1 | inactive |
| CC(C)CSc1ncnc2scc(-c3ccccc3)c12 | inactive |
| Cc1ccc(S(=O)(=O)Nc2ccc3c(c2)C(=O)N([C@H](C)CO)C[C@H](C)[C@@H](CN(C)Cc2ccncc2)OCCCC[C@@H](C)O3)cc1 | inactive |
| COc1ccc(S(=O)(=O)N(C)C[C@H]2Oc3ccc(NC(=O)CCC(F)(F)F)cc3CC(=O)N([C@@H](C)CO)C[C@@H]2C)cc1 | inactive |
| O=C(CN1CCOCC1)N[C@H]1CC[C@@H](CCNC(=O)C2CCC2)O[C@@H]1CO | inactive |
| C[C@@H]1CN([C@H](C)CO)C(=O)c2cc(NC(=O)Cc3ccccc3)ccc2O[C@H]1CN(C)S(=O)(=O)c1cccs1 | inactive |
| C[C@H](O)C#Cc1ccc2c(c1)O[C@H](CN(C)C(=O)c1ccncc1)[C@H](C)CN([C@H](C)CO)S2(=O)=O | inactive |
| CN(C)CC#Cc1ccc([C@@H]2[C@@H](CO)N3CCCCN(C(=O)CN(C)C)C[C@@H]23)cc1 | inactive |
| CCCCc1nn(-c2ccccc2C(F)(F)F)c(=O)n1Cc1ccc(-c2ccccc2S(=O)(=O)NC(=O)c2sccc2C)cc1 | active |
| C[C@H]1CN([C@@H](C)CO)C(=O)c2cccc(NS(=O)(=O)c3ccccc3)c2O[C@H]1CN(C)S(=O)(=O)c1cccs1 | inactive |
| C[C@H](CO)N1C[C@H](C)[C@@H](CN(C)S(=O)(=O)c2ccc(Cl)cc2)Oc2ccc(NS(C)(=O)=O)cc2CC1=O | inactive |
| C[C@H](CO)N1C[C@H](C)[C@H](CN(C)S(=O)(=O)c2ccc(F)cc2)OCCCC[C@H](C)Oc2ccc(NC(=O)CCCCCC(=O)Nc3ccccc3N)cc2C1=O | inactive |
